Counter-ions that a name gives are not always drawn. What follows is the remainder of the data, with few or none of the strong results.
tested on: M. mycetomatis strain mm55; details: m. mycetomatis hyphae, 96 h, 2 µM

SMILES	% viability
CN1c2ccccc2C(NCCCCCCC(=O)O)c2ccc(Cl)cc2S1(=O)=O (centres unmarked) [ONC0004261, tianeptine sodium salt]	66.06%
CC(=O)[C@H]1CC[C@H]2[C@@H]3CC[C@H]4C[C@H](O)CC[C@]4(C)[C@H]3C(=O)C[C@]12C [ONC0002908, alfaxalone]	53.4%
